# From the supplement of paper PMC4604168 (melanoma cell lines)
# The other results are listed elsewhere or left out. Single values are uncertain, as repeats are few or missing.
# Tests used:
# Assay in all cases: cell count relative to DMSO control; melanoma cells; higher = more viable cells
# Settings in all cases: library dose: standard library concentration; 72 h
# G361 = tested on: G361
# IPC-298 = tested on: IPC-298
# IST-MEL1 = tested on: IST-MEL1
# LB2518-MEL = tested on: LB2518-MEL
# LOXIMVI = tested on: LOXIMVI
# MEL-HO = tested on: MEL-HO
# MZ2-MEL = tested on: MZ2-MEL
# MeWo = tested on: MeWo
# RPMI7951 = tested on: RPMI7951
# RVH-421 = tested on: RVH-421
# 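Note: cells treated in 1,536-well plates, then fixed and DAPI-stained, with nuclei counted from automated high-throughput microscope images.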
Structure (SMILES),cell count (G361) [%],cell count (IPC-298) [%],cell count (IST-MEL1) [%],cell count (LB2518-MEL) [%],cell count (LOXIMVI) [%],cell count (MEL-HO) [%],cell count (MZ2-MEL) [%],cell count (MeWo) [%],cell count (RPMI7951) [%],cell count (RVH-421) [%]
"CCCS(=O)(=O)Nc1ccc(F)c(C(=O)c2c[nH]c3ncc(Cl)cc23)c1F + COc1cc2ncnc(Nc3ccc(Oc4ccccc4)cc3)c2cc1OC [SrcI1] (first compound 0.4 µM, partner dose 10 µM)",40.5,68,82,98.1,101,88.6,64.7,77.7,48.4,89.2
"CS(=O)(=O)c1ccc(C(=O)Nc2ccc(Cl)c(-c3ccccn3)c2)c(Cl)c1 [vismodegib] + O=C(Nc1ccccc1)c1cc([N+](=O)[O-])ccc1Cl [GW9662] (first compound 5 µM, partner dose 10 µM)",107,107,98.1,79.8,79.5,105,99.3,79.8,102,85.5
"CN(c1ncccc1CNc1nc(Nc2ccc3c(c2)CC(=O)N3)ncc1C(F)(F)F)S(C)(=O)=O + Oc1cc(-c2nc(-c3ccccc3)[nH]c2-c2ccncc2)ccc1Cl [L779450] (first compound 0.4 µM, partner dose 1 µM)",41.4,69.7,77.5,83.5,92.1,80.2,72.9,83.8,56.1,78.6
"C=C(c1ccc(C(=O)O)cc1)c1cc2c(cc1C)C(C)(C)CCC2(C)C [Bexarotene] + COc1ccc(COc2ccc(Cc3cnc(N)nc3N)cc2OC)cc1 [GW2580] (first compound 10 µM, partner dose 5 µM)",75.5,81.2,74.5,101,128,77.9,80.8,99.2,107,140
"NC1(c2ccc(-c3nc4ccn5c(=O)[nH]nc5c4cc3-c3ccccc3)cc2)CCC1 + Cn1c(=O)n(-c2ccc(C(C)(C)C#N)cc2)c2c3cc(-c4cnc5ccccc5c4)ccc3ncc21 [NVP-BEZ235] (first compound 2 µM, partner dose 0.02 µM)",35.9,55.3,59.3,60.4,61.5,48.6,65.3,41,61,55.2
"CCCS(=O)(=O)Nc1ccc(F)c(C(=O)c2c[nH]c3ncc(Cl)cc23)c1F + c1cc(-c2cnn3cc(-c4ccc(OCCN5CCCCC5)cc4)cnc23)ccn1 [Dorsomorphin] (first compound 0.4 µM, partner dose 2 µM)",36.2,58.5,76.6,51.1,80.8,62.6,47.8,62.4,63.2,78.3
"C=C(c1ccc(C(=O)O)cc1)c1cc2c(cc1C)C(C)(C)CCC2(C)C [Bexarotene] + C=CCNC1=C2C[C@@H](C)C[C@H](OC)[C@H](O)[C@@H](C)/C=C(\C)[C@H](OC(N)=O)[C@@H](OC)/C=C\C=C(/C)C(=O)NC(=CC1=O)C2=O [Tanespimycin] (first compound 10 µM, partner dose 0.01 µM)",57.2,78.2,53.1,68,105,74.7,93.7,59.1,18.9,101
"CN(c1ncccc1CNc1nc(Nc2ccc3c(c2)CC(=O)N3)ncc1C(F)(F)F)S(C)(=O)=O + O=c1cc(-c2cccc3c2Sc2ccccc2S3)oc(N2CCOCC2)c1 [KU55933] (first compound 0.4 µM, partner dose 5 µM)",75.2,91.7,112,93.4,199,81.8,94.7,98.7,69.3,82.6
"CS(=O)(=O)c1ccc(C(=O)Nc2ccc(Cl)c(-c3ccccn3)c2)c(Cl)c1 [vismodegib] + Cc1nc(Nc2ncc(C(=O)Nc3c(C)cccc3Cl)s2)cc(N2CCN(CCO)CC2)n1 [dasatanib] (first compound 5 µM, partner dose 0.02 µM)",80.3,82.1,71.3,116,15.8,86.6,57,79.7,37.7,76.8
"CN(c1ncccc1CNc1nc(Nc2ccc3c(c2)CC(=O)N3)ncc1C(F)(F)F)S(C)(=O)=O + COc1ccc(Cl)c(Nc2nc3ccccc3nc2NS(=O)(=O)c2cccc(NC(=O)C(C)(C)N)c2)c1 [XL147] (first compound 0.4 µM, partner dose 4 µM)",71,71.7,51.5,69.2,108,63,68.1,90.4,52.9,68.6
"CS(=O)(=O)c1ccc(C(=O)Nc2ccc(Cl)c(-c3ccccn3)c2)c(Cl)c1 [vismodegib] + Cn1c(=O)n(-c2ccc(C(C)(C)C#N)cc2)c2c3cc(-c4cnc5ccccc5c4)ccc3ncc21 [NVP-BEZ235] (first compound 5 µM, partner dose 0.02 µM)",62.4,68.1,72.9,94.7,100,67.1,93.7,69.2,85.1,113
